Source: PMC9911399, “Two distinct binding modes provide the RNA-binding protein RbFox with extraordinary sequence specificity”
Substitutions are numbered along the chain they refer to; changes in the protein carry UniProt numbers. Some of the results follow.

B1: CCUACCG (DNA:RNA)
RNA: GGGAGACCGGAAUUCAGAUUGUCCCCUACCGUUAAAUCCCGUCGUAGCCACCA
DNA 1: CAATCTGAATTCCGGTCTCCC
DNA 2: TGGTGGCTACGACGGGATT
B2: GGAGUAC (DNA:RNA)
RNA: GGGAGACCGGAAUUCAGAUUGUCCGGAGUACUUAAAUCCCGUCGUAGCCACCA
DNA 1: CAATCTGAATTCCGGTCTCCC
DNA 2: TGGTGGCTACGACGGGATT
B3: CUUGAAA (DNA:RNA)
RNA: B1 RNA with C26U, A28G, C29A, C30A, G31A
DNA 1: CAATCTGAATTCCGGTCTCCC
DNA 2: TGGTGGCTACGACGGGATT
B4: CCUCUUG (DNA:RNA)
RNA: B1 RNA with A28C, C29U, C30U
DNA 1: CAATCTGAATTCCGGTCTCCC
DNA 2: TGGTGGCTACGACGGGATT
B5: AAGUCUG (DNA:RNA)
RNA: B1 RNA with C25A, C26A, U27G, A28U, C30U
DNA 1: CAATCTGAATTCCGGTCTCCC
DNA 2: TGGTGGCTACGACGGGATT
B6: AAGUCAC (DNA:RNA)
RNA: B2 RNA with G25A, G26A, A27G, G28U, U29C
DNA 1: CAATCTGAATTCCGGTCTCCC
DNA 2: TGGTGGCTACGACGGGATT
B7: UGGUCCC (DNA:RNA)
RNA: B1 RNA with C25U, C26G, U27G, A28U, G31C
DNA 1: CAATCTGAATTCCGGTCTCCC
DNA 2: TGGTGGCTACGACGGGATT
B8: AAUACAU (DNA:RNA)
RNA: B1 RNA with C25A, C26A, C30A, G31U
DNA 1: CAATCTGAATTCCGGTCTCCC
DNA 2: TGGTGGCTACGACGGGATT
B9: UAUGAGC (DNA:RNA)
RNA: B2 RNA with G25U, G26A, A27U, U29A, A30G
DNA 1: CAATCTGAATTCCGGTCTCCC
DNA 2: TGGTGGCTACGACGGGATT
B10: AGAUCGC (DNA:RNA)
RNA: B2 RNA with G25A, G28U, U29C, A30G
DNA 1: CAATCTGAATTCCGGTCTCCC
DNA 2: TGGTGGCTACGACGGGATT
B11: AUUCCCC (DNA:RNA)
RNA: B1 RNA with C25A, C26U, A28C, G31C
DNA 1: CAATCTGAATTCCGGTCTCCC
DNA 2: TGGTGGCTACGACGGGATT
B12: UAAUGAA (DNA:RNA)
RNA: B2 RNA with G25U, G26A, G28U, U29G, C31A
DNA 1: CAATCTGAATTCCGGTCTCCC
DNA 2: TGGTGGCTACGACGGGATT
B13: GUAAGUC (DNA:RNA)
RNA: B2 RNA with G26U, G28A, U29G, A30U
DNA 1: CAATCTGAATTCCGGTCTCCC
DNA 2: TGGTGGCTACGACGGGATT
B14: AGGGAAA (DNA:RNA)
RNA: B2 RNA with G25A, A27G, U29A, C31A
DNA 1: CAATCTGAATTCCGGTCTCCC
DNA 2: TGGTGGCTACGACGGGATT
B15: UAGAGAG (DNA:RNA)
RNA: B1 RNA with C25U, C26A, U27G, C29G, C30A
DNA 1: CAATCTGAATTCCGGTCTCCC
DNA 2: TGGTGGCTACGACGGGATT
B16: GCGAGGG (DNA:RNA)
RNA: B1 RNA with C25G, U27G, C29G, C30G
DNA 1: CAATCTGAATTCCGGTCTCCC
DNA 2: TGGTGGCTACGACGGGATT
B17: CGCUGAG (DNA:RNA)
RNA: B1 RNA with C26G, U27C, A28U, C29G, C30A
DNA 1: CAATCTGAATTCCGGTCTCCC
DNA 2: TGGTGGCTACGACGGGATT
B18: CCCGUCG (DNA:RNA)
RNA: B1 RNA with U27C, A28G, C29U
DNA 1: CAATCTGAATTCCGGTCTCCC
DNA 2: TGGTGGCTACGACGGGATT
B19: GAUCAUG (DNA:RNA)
RNA: B1 RNA with C25G, C26A, A28C, C29A, C30U
DNA 1: CAATCTGAATTCCGGTCTCCC
DNA 2: TGGTGGCTACGACGGGATT
B20: AUACGCU (DNA:RNA)
RNA: B1 RNA with C25A, C26U, U27A, A28C, C29G, G31U
DNA 1: CAATCTGAATTCCGGTCTCCC
DNA 2: TGGTGGCTACGACGGGATT
B21: AGGCUCC (DNA:RNA)
RNA: B2 RNA with G25A, A27G, G28C, A30C
DNA 1: CAATCTGAATTCCGGTCTCCC
DNA 2: TGGTGGCTACGACGGGATT
B22: ACCCUUG (DNA:RNA)
RNA: B1 RNA with C25A, U27C, A28C, C29U, C30U
DNA 1: CAATCTGAATTCCGGTCTCCC
DNA 2: TGGTGGCTACGACGGGATT
B23: GCAGCAC (DNA:RNA)
RNA: B2 RNA with G26C, U29C
DNA 1: CAATCTGAATTCCGGTCTCCC
DNA 2: TGGTGGCTACGACGGGATT
B24: CAAUACU (DNA:RNA)
RNA: B1 RNA with C26A, U27A, A28U, C29A, G31U
DNA 1: CAATCTGAATTCCGGTCTCCC
DNA 2: TGGTGGCTACGACGGGATT
B25: UGGAACC (DNA:RNA)
RNA: B1 RNA with C25U, C26G, U27G, C29A, G31C
DNA 1: CAATCTGAATTCCGGTCTCCC
DNA 2: TGGTGGCTACGACGGGATT
B26: ACAACUU (DNA:RNA)
RNA: B1 RNA with C25A, U27A, C30U, G31U
DNA 1: CAATCTGAATTCCGGTCTCCC
DNA 2: TGGTGGCTACGACGGGATT
B27: CUCCGAA (DNA:RNA)
RNA: B1 RNA with C26U, U27C, A28C, C29G, C30A, G31A
DNA 1: CAATCTGAATTCCGGTCTCCC
DNA 2: TGGTGGCTACGACGGGATT
B28: CCUGGCC (DNA:RNA)
RNA: B1 RNA with A28G, C29G, G31C
DNA 1: CAATCTGAATTCCGGTCTCCC
DNA 2: TGGTGGCTACGACGGGATT
B29: UAUAACC (DNA:RNA)
RNA: B1 RNA with C25U, C26A, C29A, G31C
DNA 1: CAATCTGAATTCCGGTCTCCC
DNA 2: TGGTGGCTACGACGGGATT
B30: CAUGCUC (DNA:RNA)
RNA: B1 RNA with C26A, A28G, C30U, G31C
DNA 1: CAATCTGAATTCCGGTCTCCC
DNA 2: TGGTGGCTACGACGGGATT
B31: GCCGUUC (DNA:RNA)
RNA: B2 RNA with G26C, A27C, A30U
DNA 1: CAATCTGAATTCCGGTCTCCC
DNA 2: TGGTGGCTACGACGGGATT

Target: T1, RBFOX1 RRM (Homo sapiens, UniProt Q9NWB1 109-208)
T1 sequence: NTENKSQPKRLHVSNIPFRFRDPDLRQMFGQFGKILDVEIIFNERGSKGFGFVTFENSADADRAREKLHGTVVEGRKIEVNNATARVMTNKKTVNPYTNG
Assay: EMSA; HiTS-Eq, 1 nM pool, 10 min; buffer printed only for the single-RNA assays: 10 mM Tris pH 7.5, 150 mM NaCl, 3.4 mM EDTA, 0.001% NP-40, 30 C
Conditions: tags: His6 N-terminal (pET28a); label: 5' 32P
In short: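 Purified wild-type or mutant RbFox RRM at increasing concentrations was equilibrated with 1 nM of 5′-radiolabelled RNA carrying 7 randomized nucleotides for 10 min in 50 µL. Unbound RNA was separated by 8% native PAGE and sequenced. Relative association constants came from read-count changes of each RNA species compared with the control reaction, normalised to the cognate motif.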

Row | Binder | binding signal
1 | B1 | 0.00129 KA relative to UGCAUGU
2 | B2 | 0.0247 KA relative to UGCAUGU
3 | B3 | 0.00785 KA relative to UGCAUGU
4 | B4 | 0.00933 KA relative to UGCAUGU
5 | B5 | 0.0131 KA relative to UGCAUGU
6 | B6 | 0.00546 KA relative to UGCAUGU
7 | B7 | 0.0149 KA relative to UGCAUGU
8 | B8 | 0.000474 KA relative to UGCAUGU
9 | B9 | 0.0111 KA relative to UGCAUGU
10 | B10 | 0.0142 KA relative to UGCAUGU
11 | B11 | 0.000201 KA relative to UGCAUGU
12 | B12 | 0.0113 KA relative to UGCAUGU
13 | B13 | 0.00957 KA relative to UGCAUGU
14 | B14 | 0.0157 KA relative to UGCAUGU
15 | B15 | 0.0107 KA relative to UGCAUGU
16 | B16 | 0.0158 KA relative to UGCAUGU

Row | Binder | binding signal
17 | B17 | 0.0264 KA relative to UGCAUGU
18 | B18 | 0.00255 KA relative to UGCAUGU
19 | B19 | 0.0126 KA relative to UGCAUGU
20 | B20 | 0.00243 KA relative to UGCAUGU
21 | B21 | 0.00607 KA relative to UGCAUGU
22 | B22 | 0.00413 KA relative to UGCAUGU
23 | B23 | 0.0121 KA relative to UGCAUGU
24 | B24 | 0.000575 KA relative to UGCAUGU
25 | B25 | 0.0158 KA relative to UGCAUGU
26 | B26 | 0.000268 KA relative to UGCAUGU
27 | B27 | 0.00563 KA relative to UGCAUGU
28 | B28 | 0.0142 KA relative to UGCAUGU
29 | B29 | 0.0015 KA relative to UGCAUGU
30 | B30 | 0.00669 KA relative to UGCAUGU
31 | B31 | 0.0165 KA relative to UGCAUGU
